Key:
Format in all cases: cell-based
[1] = test system: Human hepatocytes (HepaRG cells); experiment: Human cytotoxicity assay in vitro (CellTiter-Glo), hepatocytes; parameters: key: 4: inhibiting cell viability 50% or more at concentrations of 10 μM or less; 3: causing at least 80% inhibition of viability at 25 μM; showing toxicity at 25 μM, but causing less than 20% inhibition of viability; 1: not causing a loss of viability at concentrations between 25 and 50 μM; without signs of cell viability loss at concentrations of 50 μM or higher
[2] = test system: Human keratinocytes (HaCaT cells); experiment: Human cytotoxicity assay in vitro (CellTiter-Glo), keratinocytes
[3] = test system: Streptococcus pneumoniae (Chester, ATCC49619); experiment: Broth microdilution MIC assay, Streptococcus pneumoniae; details: MIC class score, MIC100, broth microdilution
[4] = test system: Staphylococcus aureus MRSA (COL); experiment: Broth microdilution MIC assay, Staphylococcus aureus MRSA (COL); details: MIC class score, MIC100, broth microdilution, COL strain

Row | SMILES | cytotoxicity, cell line H (hepatocytes), class [1] | cytotoxicity, cell line K (keratinocytes), class [2] | Antibacterial activity Streptococcus pneumoniae [3] | Antibacterial activity Staphylococcus aureus (MRSA) [4]
1 | Cc1[nH]c(-c2ccc(-c3ccccc3OC(F)(F)F)o2)nc1Cc1ccc(Br)cc1 [compound 30, 4-(4-Bromo-benzyl)-5-methyl-2-[5-(2-trifluoromethoxy-phenyl)-furan-2-yl]-1H-imidazole] | 3 | 3 (causing more than 50% inhibition of cell viability at 10 μM) | 4 (MIC of 1 μg/ml or less for preventing streptococcal growth 100% (MIC100)) | 
2 | Cc1nc(-c2cc(C)n(-c3ccccc3F)c2C)[nH]c1-c1ccccc1 [compound 119] |  |  | 1 (MIC100 of 11-20 μg/ml or an MIC50 of <10 μg/ml) | 1 (MIC100 of 20-50 μg/ml or an MIC50 of <10 μg/ml)
3 | CCCc1[nH]c(-c2ccc(-c3cc4ccccc4o3)o2)nc1C [compound 106] |  |  |  | 4 (MIC of 1 μg/ml to 3 μg/ml for preventing staphylococcal growth 100% (MIC100))
4 | Cc1[nH]c(-c2ccc(-c3ccccc3OC(F)(F)F)o2)nc1-c1ccc(Cl)cc1 [compound 24] | 2 | 2 (causing >50% inhibition of cell viability at 25 μM) | 4 (MIC of 1 μg/ml or less for preventing streptococcal growth 100% (MIC100)) | 
5 | Cc1[nH]c(-c2cc(C)n(-c3ccc(Cl)cc3)c2C)nc1-c1ccccc1 [compound 8] | 2 | 1 (causing less than 50% inhibition of cell viability at 50 μM) |  | 1 (MIC100 of 20-50 μg/ml or an MIC50 of <10 μg/ml)
6 | Cc1nc(-c2ccc(-c3ccc(C(F)(F)F)cc3)o2)[nH]c1-c1ccccc1 [compound 45] | 1 (not causing a loss of viability at concentrations between 25 and 50 μM) | 1 (causing less than 50% inhibition of cell viability at 50 μM) | 4 (MIC of 1 μg/ml or less for preventing streptococcal growth 100% (MIC100)) | 
7 | CCCc1[nH]c(-c2ccc(-c3ccccc3C(F)(F)F)o2)nc1C [compound 101] |  |  |  | 4 (MIC of 1 μg/ml to 3 μg/ml for preventing staphylococcal growth 100% (MIC100))
8 | Cc1[nH]c(-c2ccn(-c3ccccc3C(F)(F)F)c2)nc1-c1ccccc1 [compound 33] |  | 3 (causing more than 50% inhibition of cell viability at 10 μM) |  | 1 (MIC100 of 20-50 μg/ml or an MIC50 of <10 μg/ml)
9 | Cc1nc(-c2ccc(-c3cccc(Cl)c3)o2)[nH]c1-c1ccccc1 [compound 4] |  | 2 (causing >50% inhibition of cell viability at 25 μM) | 4 (MIC of 1 μg/ml or less for preventing streptococcal growth 100% (MIC100)) | 
10 | Cc1ccc(-c2ccc(-c3nc(-c4ccccc4)c(C)[nH]3)o2)cc1 [compound 52] | 3 | 2 (causing >50% inhibition of cell viability at 25 μM) | 4 (MIC of 1 μg/ml or less for preventing streptococcal growth 100% (MIC100)) | 
11 | Cc1nc(-c2ccc(-c3cccc(OC(F)(F)F)c3)o2)[nH]c1-c1ccc(F)cc1 [compound 37] | 3 | 2 (causing >50% inhibition of cell viability at 25 μM) | 4 (MIC of 1 μg/ml or less for preventing streptococcal growth 100% (MIC100)) | 
12 | Cc1[nH]c(-c2ccc(-c3ccc(Cl)c(C(F)(F)F)c3)o2)nc1-c1ccccc1 [compound 39] | 1 (not causing a loss of viability at concentrations between 25 and 50 μM) | 2 (causing >50% inhibition of cell viability at 25 μM) | 4 (MIC of 1 μg/ml or less for preventing streptococcal growth 100% (MIC100)) | 
13 | C#Cc1ccc(-c2nc(-c3ccc(-c4ccccc4C(F)(F)F)o3)[nH]c2C)cc1 [compound 27] | 1 (not causing a loss of viability at concentrations between 25 and 50 μM) | 2 (causing >50% inhibition of cell viability at 25 μM) | 4 (MIC of 1 μg/ml or less for preventing streptococcal growth 100% (MIC100)) | 
14 | FC(F)(F)c1ccccc1-c1ccc(-c2nc3c([nH]2)CCCC3)o1 [compound 87] |  |  |  | 4 (MIC of 1 μg/ml to 3 μg/ml for preventing staphylococcal growth 100% (MIC100))
15 | CCCc1nc(-c2ccc(-c3cccc(C(F)(F)F)c3)o2)[nH]c1C [compound 99] |  |  |  | 4 (MIC of 1 μg/ml to 3 μg/ml for preventing staphylococcal growth 100% (MIC100))
16 | Cc1nc(-c2ccc(-c3ccccc3OC(F)(F)F)o2)[nH]c1-c1cccc(Cl)c1 [compound 21] | 3 | 2 (causing >50% inhibition of cell viability at 25 μM) | 4 (MIC of 1 μg/ml or less for preventing streptococcal growth 100% (MIC100)) | 
17 | Cc1[nH]c(-c2cc(C)n(-c3ccc(F)cc3F)c2C)nc1-c1ccccc1 [compound 9] | 3 | 2 (causing >50% inhibition of cell viability at 25 μM) |  | 1 (MIC100 of 20-50 μg/ml or an MIC50 of <10 μg/ml)
18 | CCCc1[nH]c(-c2ccc(-c3ccccc3OC(F)(F)F)o2)nc1C [compound 89] |  |  |  | 4 (MIC of 1 μg/ml to 3 μg/ml for preventing staphylococcal growth 100% (MIC100))
19 | Cc1[nH]c(-c2ccc(-c3ccccc3OC(F)(F)F)o2)nc1-c1ccc(O)cc1 [compound 76] |  |  |  | 4 (MIC of 1 μg/ml to 3 μg/ml for preventing staphylococcal growth 100% (MIC100))
20 | Cc1nc(-c2ccc(-c3ccc(Cl)cc3Cl)o2)[nH]c1-c1ccccc1 [compound 1] | 2 | 2 (causing >50% inhibition of cell viability at 25 μM) | 4 (MIC of 1 μg/ml or less for preventing streptococcal growth 100% (MIC100)) | 
21 | CCCCc1[nH]c(-c2ccc(-c3ccccc3OC(F)(F)F)o2)nc1C [compound 91] |  |  |  | 4 (MIC of 1 μg/ml to 3 μg/ml for preventing staphylococcal growth 100% (MIC100))
22 | CCCCc1nc(-c2ccc(-c3ccccc3C(F)(F)F)o2)[nH]c1C [compound 90] |  |  |  | 4 (MIC of 1 μg/ml to 3 μg/ml for preventing staphylococcal growth 100% (MIC100))
23 | CCCc1[nH]c(-c2ccc(-c3ccc(N4CCN(C)CC4)cc3)o2)nc1C [compound 107] |  |  | 1 (MIC100 of 11-20 μg/ml or an MIC50 of <10 μg/ml) | 1 (MIC100 of 20-50 μg/ml or an MIC50 of <10 μg/ml)
24 | COc1ccc(-c2ccc(-c3nc(C)c(-c4ccccc4)[nH]3)o2)c(C(F)(F)F)c1 [compound 31] | 3 | 0 (not causing loss of cell viability at concentrations of 50 μM or higher) | 4 (MIC of 1 μg/ml or less for preventing streptococcal growth 100% (MIC100)) | 
25 | Cc1[nH]c(-c2ccc(-c3ccccc3Cl)o2)nc1-c1ccccc1 [compound 3] | 3 | 1 (causing less than 50% inhibition of cell viability at 50 μM) | 4 (MIC of 1 μg/ml or less for preventing streptococcal growth 100% (MIC100)) | 
26 | FC(F)(F)Oc1ccccc1-c1ccc(-c2nc3c([nH]2)CCCC3)o1 [compound 88] |  |  |  | 4 (MIC of 1 μg/ml to 3 μg/ml for preventing staphylococcal growth 100% (MIC100))
27 | Cc1nc(-c2ccc(-c3ccccc3C(F)(F)F)o2)[nH]c1CC(C)C [compound 92] |  |  |  | 4 (MIC of 1 μg/ml to 3 μg/ml for preventing staphylococcal growth 100% (MIC100))
28 | Cc1ccccc1-c1c[nH]c(-c2ccc(-c3ccccc3OC(F)(F)F)o2)n1 [compound 66] | 3 | 1 (causing less than 50% inhibition of cell viability at 50 μM) | 4 (MIC of 1 μg/ml or less for preventing streptococcal growth 100% (MIC100)) | 
29 | Cc1[nH]c(-c2ccc(-c3ccc(OC(F)(F)F)cc3Cl)o2)nc1-c1ccc(F)cc1 [compound 51] | 3 | 3 (causing more than 50% inhibition of cell viability at 10 μM) |  | 1 (MIC100 of 20-50 μg/ml or an MIC50 of <10 μg/ml)
30 | CCCc1[nH]c(-c2ccc(-c3ccccc3Cl)o2)nc1C [compound 95] |  |  |  | 4 (MIC of 1 μg/ml to 3 μg/ml for preventing staphylococcal growth 100% (MIC100))
